Assay results reported in PMC8986152.
No constants are given. Whether binding was seen depends on the method and setting. In cells and extracts the contact can be indirect. Some entries that bind do so weakly or less than the wild type. For some assays here: Sequences can lack the tags named with a protein.

By UniProt entry, the sequences of proteins in these tests, tags left out. Where a name states a change or a piece, a line headed by the entry shows the natural chain unless it says otherwise. Chains listed by the source or under a name are the forms on record and can include a tag or linker.
VSV-PDE4D7 (Q08499-11, form named): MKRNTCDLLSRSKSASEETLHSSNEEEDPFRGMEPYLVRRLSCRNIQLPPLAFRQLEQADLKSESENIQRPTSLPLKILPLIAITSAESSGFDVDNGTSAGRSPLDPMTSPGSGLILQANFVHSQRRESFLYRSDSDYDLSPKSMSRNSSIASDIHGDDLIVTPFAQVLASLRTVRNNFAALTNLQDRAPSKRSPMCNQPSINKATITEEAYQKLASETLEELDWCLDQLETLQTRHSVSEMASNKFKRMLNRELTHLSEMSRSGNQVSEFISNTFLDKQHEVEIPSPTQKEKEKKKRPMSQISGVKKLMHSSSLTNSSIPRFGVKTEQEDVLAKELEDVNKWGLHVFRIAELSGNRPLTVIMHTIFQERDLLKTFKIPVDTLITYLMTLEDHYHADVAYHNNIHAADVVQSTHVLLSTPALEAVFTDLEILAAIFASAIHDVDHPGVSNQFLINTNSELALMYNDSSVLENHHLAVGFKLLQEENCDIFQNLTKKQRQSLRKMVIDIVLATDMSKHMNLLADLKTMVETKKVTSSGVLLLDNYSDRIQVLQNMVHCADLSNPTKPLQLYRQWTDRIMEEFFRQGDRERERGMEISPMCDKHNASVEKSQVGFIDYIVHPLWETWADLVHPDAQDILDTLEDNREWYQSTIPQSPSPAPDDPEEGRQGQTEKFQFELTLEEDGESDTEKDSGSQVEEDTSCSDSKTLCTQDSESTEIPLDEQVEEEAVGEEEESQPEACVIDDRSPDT

Key:
myc-POPDC1 [1] = target: T1, myc-POPDC1 (UniProt Q8NE79); assay: co-IP; HEK293 transiently transfected with myc-POPDC1 and one VSV-tagged PDE4; POPDC1 precipitated by myc (myc-agarose resin / Protein G sepharose, 4 °C overnight), PDE4 detected by VSV blot; CO-IP buffer with 150 mM NaCl, 1% Triton X-100
T1 sequence: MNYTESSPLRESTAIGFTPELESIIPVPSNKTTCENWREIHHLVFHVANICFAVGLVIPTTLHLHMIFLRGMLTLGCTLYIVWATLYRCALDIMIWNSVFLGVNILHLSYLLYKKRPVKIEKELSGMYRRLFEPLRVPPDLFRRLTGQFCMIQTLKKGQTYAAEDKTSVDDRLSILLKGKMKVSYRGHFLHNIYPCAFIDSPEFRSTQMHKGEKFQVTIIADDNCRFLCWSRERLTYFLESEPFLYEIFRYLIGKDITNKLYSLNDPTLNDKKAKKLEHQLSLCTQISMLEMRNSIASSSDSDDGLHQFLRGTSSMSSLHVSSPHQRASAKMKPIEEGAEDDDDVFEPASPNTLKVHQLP

myc-POPDC1 [2] = target: T1, myc-POPDC1; assay: proximity ligation; HEK293 transfected with POPDC1-myc and PDE4A5-VSV, treated with 10 μM scrambled or disruptor peptide for two hours before fixation; the blocked pair
myc-POPDC1 [3] = target: T1, myc-POPDC1; assay: co-IP; HEK293 transiently transfected with myc-POPDC1 and one VSV-tagged PDE4; POPDC1 precipitated by myc (myc-agarose resin / Protein G sepharose, 4 °C overnight), PDE4 detected by VSV blot; CO-IP buffer with 150 mM NaCl, 1% Triton X-100; remark: listed apart in the source
myc-POPDC1 [4] = target: T1, myc-POPDC1; assay: proximity ligation; Duolink PLA in fixed HEK293 cells transiently transfected with POPDC1 and VSV-tagged PDE4A
myc-POPDC1 [5] = target: T1, myc-POPDC1; assay: co-IP; HEK293 transfected with POPDC1-myc and PDE4A5-VSV, cells treated with 10 μM scrambled or disruptor peptide; myc-conjugated resin; the blocked pair
[6] = target: T2, POPDC1, endogenous in neonatal rat ventricular myocytes (rat (endogenous in neonatal rat ventricular myocytes)) (UniProt Q3BCU4); assay: co-IP; endogenous proteins in NRVM lysate; POPDC1 (BVES) antibody precipitation, blotted for PDE4A5
T2 sequence: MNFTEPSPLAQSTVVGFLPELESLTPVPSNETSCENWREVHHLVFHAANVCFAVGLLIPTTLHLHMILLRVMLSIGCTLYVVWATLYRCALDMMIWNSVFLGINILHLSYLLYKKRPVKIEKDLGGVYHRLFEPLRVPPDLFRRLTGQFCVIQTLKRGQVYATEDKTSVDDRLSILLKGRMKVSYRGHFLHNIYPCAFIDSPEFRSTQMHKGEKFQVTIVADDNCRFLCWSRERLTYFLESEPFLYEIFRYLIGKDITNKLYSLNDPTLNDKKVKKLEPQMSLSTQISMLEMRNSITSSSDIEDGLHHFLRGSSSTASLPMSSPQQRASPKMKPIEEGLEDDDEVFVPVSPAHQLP

[7] = target: T2, POPDC1, endogenous in neonatal rat ventricular myocytes (rat (endogenous in neonatal rat ventricular myocytes)); assay: proximity ligation; NRVMs, endogenous proteins, treated with 10 μM scrambled or disruptor peptide for two hours before fixation; the blocked pair
[8] = target: T2, POPDC1, endogenous in neonatal rat ventricular myocytes (rat (endogenous in neonatal rat ventricular myocytes)); assay: proximity ligation; Duolink PLA in fixed NRVMs, endogenous proteins; BVES antibody with pan-PDE4A, PDE4B or PDE4D antibody

VSV-PDE4B1 (from UniProt Q07343-1 1-736) (enzyme)
binding (myc-POPDC1 [1]): no binding

VSV-PDE4D7 (from UniProt Q08499-11 1-748) (enzyme)
binding (myc-POPDC1 [1]): no binding

B1: VSV-PDE4A5 (enzyme, UniProt O89084 1-844)
chain: MEPPAAPSERSLSLSLPGPREGQATLKPPPQHLWRQPRTPIRIQQRGYSDSAERSEPERSPHRPIERADAVDTGDRPGLRTTRMSWPSSFHGTGTGGGSSRRLEAENGPTPSPGRSPLDSQASPGLMLHAGAATSQRRESFLYRSDSDYDMSPKTMSRNSSVASEAHGEDLIVTPFAQVLASLRNVRSNFSLLTNVPIPSNKRSPLGGPPSVCKATLSEETCQQLARETLEELDWCLEQLETMQTYRSVSEMASHKFKRMLNRELTHLSEMSRSGNQVSEYISNTFLDKQHEVEIPSPTPRQRPFQQPPPAAVQQAQPMSQITGLKKLVHTGSLNINVPRFGVKTDQEDLLAQELENLSKWGLNIFCVSEYAGGRSLSCIMYTIFQERDLLKKFHIPVDTMMTYMLTLEDHYHADVAYHNSLHAADVLQSTHVLLATPALDAVFTDLEILAALFAAAIHDVDHPGVSNQFLINTNSELALMYNDESVLENHHLAVGFKLLQEENCDIFQNLSKRQRQSLRKMVIDMVLATDMSKHMTLLADLKTMVETKKVTSSGVLLLDNYSDRIQVLRNMVHCADLSNPTKPLELYRQWTDRIMAEFFQQGDRERERGMEISPMCDKHTASVEKSQVGFIDYIVHPLWETWADLVHPDAQDILDTLEDNRDWYHSAIRQSPSPTLEEEPGVLSDPALPDKFQFELTLEEEDEEDSLEVPGLPCTEETLLAPHDTRAQAMEQSKVKGQSPAVVEVAESLKQETASAHGAPEESAEAVGHSFSLETSILPDLRTLSPSEEAQGLLGLPSMAAEVEAPRDHLAAMRACSACSGTSGDNSAVISAPGRWGSGGDPA
binding (myc-POPDC1 [2]): binds
binding (myc-POPDC1 [3]): binds
binding (myc-POPDC1 [4]): binds
binding (myc-POPDC1 [5]): binds

B2: PDE4A (PDE4A5), endogenous in neonatal rat ventricular myocytes (enzyme, UniProt P54748-1 1-844)
chain: MEPPAAPSERSLSLSLPGPREGQATLKPPPQHLWRQPRTPIRIQQRGYPDSAERSETERSPHRPIERADAVDTGDRPGLRTTRMSWPSSFHGTGTGGGSSRRLEAENGPTPSPGRSPLDSQASPGLVLHAGATTSQRRESFLYRSDSDYDMSPKAVSRSSSVASEAHAEDLIVTPFAQVLASLRSVRSNFSLLTNVPIPSNKRSPLGGPPSVCKATLSEETCQQLARETLEELDWCLEQLETMQTYRSVSEMASHKFKRMLNRELTHLSEMSRSGNQVSEYISNTFLDKQNEVEIPSPTPRQRAFQQPPPSVLRQSQPMSQITGLKKLVHTGSLNTNVPRFGVKTDQEDLLAQELENLSKWGLNIFCVSEYAGGRSLSCIMYTIFQERDLLKKFHIPVDTMMMYMLTLEDHYHADVAYHNSLHAADVLQSTHVLLATPALDAVFTDLEILAALFAAAIHDVDHPGVSNQFLINTNSELALMYNDESVLENHHLAVGFKLLQEENCDIFQNLSKRQRQSLRKMVIDMVLATDMSKHMTLLADLKTMVETKKVTSSGVLLLDNYSDRIQVLRNMVHCADLSNPTKPLELYRQWTDRIMAEFFQQGDRERERGMEISPMCDKHTASVEKSQVGFIDYIVHPLWETWADLVHPDAQDILDTLEDNRDWYHSAIRQSPSPPLEEEPGGLGHPSLPDKFQFELTLEEEEEEDSLEVPGLPTTEETFLAAEDARAQAVDWSKVKGPSTTVVEVAERLKQETASAYGAPQESMEAVGCSFSPGTPILPDVRTLSSSEEAPGLLGLPSTAAEVEAPRDHLAATRACSACSGTSGDNSAIISAPGRWGSGGDPA
binding [6]: binds
binding [7]: binds
binding [8]: binds

B3: PDE4B, endogenous in neonatal rat ventricular myocytes (enzyme, UniProt P14646 1-736)
chain: MKKSRSVMAVTADDNLKDYFECSLSKSYSSSSYTLGIDLWRGRRCCSGNLQLPPLSQRQSERARTPEGDGISRPTTLPLTTLPSIAITTVSQECFDVENGPSPGRSPLDPQASSSSGLVLHAAFPGHSQRRESFLYRSDSDYDLSPKAMSRNSSLPSEQHGDDLIVTPFAQVLASLRIVRNNFTLLTNLHGAPNKRSPAASQAPVTRVSLQEESYQKLAMETLEELDWCLDQLETIQTYRSVSEMASNKFKRMLNRELTHLSEMSRSGNQVSEYISNTFLDKQNDVEIPSPTQKDREKKKKQQLMTQISGVKKLMHSSSLNNTSISRFGVNTENEDHLAKELEDLNKWGLNIFNVAGYSHNRPLTCIMYAIFQERDLLKTFKISSDTFVTYMMTLEDHYHSDVAYHNSLHAADVAQSTHVLLSTPALDAVFTDLEILAAIFAAAIHDVDHPGVSNQFLINTNSELALMYNDESVLENHHLAVGFKLLQEEHCDIFQNLTKKQRQTLRKMVIDMVLATDMSKHMSLLADLKTMVETKKVTSSGVLLLDNYTDRIQVLRNMVHCADLSNPTKSLELYRQWTDRIMEEFFQQGDKERERGMEISPMCDKHTASVEKSQVGFIDYIVHPLWETWADLVQPDAQDILDTLEDNRNWYQSMIPQSPSPPLDERSRDCQGLMEKFQFELTLEEEDSEGPEKEGEGPNYFSSTKTLCVIDPENRDSLEETDIDIATEDKSLIDT
binding [8]: binds weakly

B4: PDE4D, endogenous in neonatal rat ventricular myocytes (enzyme, UniProt P14270 1-803)
chain: MEAEGSSVPARAGSHEGSDSSGGAALKAPKHLWRHEQHHQYPLRQPQFRLLHPHHHLPPPPPPSPQPQLQPPPPPPLPPPPPPPGATRGRYASSGASRVRHRGYSDTERYLYCRAMDRTSYAVETGHRPGLKKSRMSWPSSFQGLRRFDVDNGTSAGRSPLDPMTSPGSGLILQANFVHSQRRESFLYRSDSDYDLSPKSMSRNSSIASDIHGDDLIVTPFAQVLASLRTVRNNFAALTNLQDRAPSKRSPMCNQPSINKATITEEAYQKLASETLEELDWCLDQLETLQTRHSVSEMASNKFKRMLNRELTHLSEMSRSGNQVSEYISNTFLDKQHEVEIPSPTQKEKEKKKRPMSQISGVKKLMHSSSLTNSCIPRFGVKTEQEDVLAKELEDVNKWGLHVFRIAELSGNRPLTVIMHTIFQERDLLKTFKIPVDTLITYLMTLEDHYHADVAYHNNIHAADVVQSTHVLLSTPALEAVFTDLEILAAIFASAIHDVDHPGVSNQFLINTNSELALMYNDSSVLENHHLAVGFKLLQEENCDIFQNLTKKQRQSLRKMAIDIVLATDMSKHMNLLADLKTMVETKKVTSSGVLLLDNYSDRIQVLQNMVHCADLSNPTKPLQLYRQWTDRIMEEFFRQGDRERERGMEISPMCDKHNASVEKSQVGFIDYIVHPLWETWADLVHPDAQDILDTLEDNREWYQSTIPQSPSPAPDDQEDGRQGQTEKFQFELTLEEDGESDTEKDSGSQVEEDTSCSDSKTLCTQDSESTEIPLDEQVEEEAVAEEESQPQTGVADDCCPDT
binding [8]: binds weakly
